This is one part of the list.
Experiments:
[1] = tested on: HSkMC (human skeletal muscle cells); test: cytotoxicity call (relative viability < 0.9); conditions: 10 µM
[2] = tested on: HepG2; test: cytotoxicity call (relative viability < 0.9); conditions: 10 µM
[3] = tested on: S. aureus RN4220; test: growth inhibition call (relative growth <= 0.2); conditions: 50 µM

| Structure (SMILES) | cytotoxicity call [1] | cytotoxicity call [2] | growth inhibition call [3] |
| --- | --- | --- | --- |
| COc1ccc(CN(C)C[C@@H]2OCCCC[C@@H](C)Oc3ccc(NC(=O)Nc4ccccc4)cc3C(=O)N([C@H](C)CO)C[C@H]2C)cc1 | inactive | inactive | inactive |
| Cc1ccc([N+](=O)[O-])cc1S(N)(=O)=O | inactive | inactive | inactive |
| COc1ccc(S(=O)(=O)Nc2ccc3c(c2)CC(=O)N([C@@H](C)CO)C[C@@H](C)[C@@H](CN(C)Cc2ccc(-c4ccccc4)cc2)O3)cc1 | inactive | inactive | inactive |
| O=C(C[C@@H]1C[C@@H]2c3cc(NC(=O)c4ccc5c(c4)OCO5)ccc3O[C@@H]2[C@H](CO)O1)NCCc1ccccc1 | inactive | active | inactive |
| CC(=O)NCCCS(=O)(=O)[O-].CC(=O)NCCCS(=O)(=O)[O-].[Ca+2] | inactive | inactive | inactive |
| C[C@@H]1CN([C@H](C)CO)C(=O)Cc2cc(NC(=O)Cc3ccccc3)ccc2O[C@H]1CN(C)S(=O)(=O)c1ccccc1 | inactive | inactive | inactive |
| O=C(NC1CCC1)[C@H]1[C@H](CO)[C@H]2Cn3c(cccc3=O)[C@H]2N1CC1CCOCC1 | inactive | inactive | inactive |
| CN(C)c1cncc(C(=O)O)c1 | inactive | inactive | inactive |
| C[C@H]1CN([C@@H](C)CO)C(=O)c2cccc(NC(=O)Nc3ccccc3)c2O[C@H]1CN(C)C(=O)Nc1ccc(C(F)(F)F)cc1 | inactive | inactive | inactive |
| C[C@H]1CN([C@@H](C)CO)S(=O)(=O)c2ccc(-c3cncnc3)cc2O[C@H]1CN(C)C(=O)C1CCCCC1 | inactive | inactive | inactive |

— the antibiotic and cytotoxicity screens of Wong et al. (2023)
